Drawing on PubChem BioAssay AID488969 (Vanderbilt High Throughput Screening Facility, 2010), this text covers z-score for 68 compounds.

Structures are written as SMILES. Whole data set: some 110,000 compounds, median “z-score” near -0.1, cut for the highest 2% near 2. This is one part of the list. The source made the active and inactive calls.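 How the source made its calls: active means z-score in the third read window above 3 or below -3; inactive means the rest.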

The test concerns the target Metabotropic glutamate receptor 8 (Rattus norvegicus) (UniProt P70579). Nature of the test: rat mGluR8 modulators via GIRK flux, primary screen, cell-based, thallium flux, HTS (AID 488969). The following applies: HEK293 rat mGluR8, GIRK (G protein-gated inwardly rectifying potassium channel) thallium flux, FluoZin2; at 10 µM; stronger effect = higher value; submaximal glutamate (EC20) added with thallium.
Chain of UniProt P70579 (P70579 whole entry, looked up): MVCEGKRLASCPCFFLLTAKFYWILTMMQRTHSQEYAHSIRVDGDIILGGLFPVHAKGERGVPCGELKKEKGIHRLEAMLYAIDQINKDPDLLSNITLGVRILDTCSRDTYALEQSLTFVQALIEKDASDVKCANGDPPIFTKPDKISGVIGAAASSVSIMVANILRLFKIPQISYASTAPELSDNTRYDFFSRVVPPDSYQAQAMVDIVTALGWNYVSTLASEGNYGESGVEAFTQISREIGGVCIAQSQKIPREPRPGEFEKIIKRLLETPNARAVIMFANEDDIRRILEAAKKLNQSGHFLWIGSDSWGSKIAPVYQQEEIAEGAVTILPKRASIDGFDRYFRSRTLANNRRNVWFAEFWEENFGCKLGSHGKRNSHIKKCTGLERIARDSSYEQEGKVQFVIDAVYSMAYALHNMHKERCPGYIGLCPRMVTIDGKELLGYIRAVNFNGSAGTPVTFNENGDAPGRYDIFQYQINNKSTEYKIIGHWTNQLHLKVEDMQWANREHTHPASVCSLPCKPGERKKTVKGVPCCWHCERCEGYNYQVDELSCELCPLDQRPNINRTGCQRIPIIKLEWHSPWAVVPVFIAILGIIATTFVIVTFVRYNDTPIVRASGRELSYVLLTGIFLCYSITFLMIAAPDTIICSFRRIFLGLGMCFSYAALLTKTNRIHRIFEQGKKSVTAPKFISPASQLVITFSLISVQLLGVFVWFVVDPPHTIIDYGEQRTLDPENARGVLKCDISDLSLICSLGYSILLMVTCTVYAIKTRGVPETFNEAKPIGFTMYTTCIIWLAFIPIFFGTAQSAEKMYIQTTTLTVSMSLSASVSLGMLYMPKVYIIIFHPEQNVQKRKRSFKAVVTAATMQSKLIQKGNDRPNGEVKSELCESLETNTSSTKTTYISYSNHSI
Consider `COc1nc(C)ccc1-c1noc(-c2ccco2)n1`, for which the z-score was 0.398.
Then `CN(C)CCCOC(=O)COc1ccc(C(C)(C)C)cc1`, with 0.0363; and `COc1ccc(-c2nnn(CC(=O)N(Cc3ccc(F)cc3)C(C(=O)NC3CCCC3)c3ccc(F)cc3)n2)cc1` (stereo not drawn), with -0.171.
As for `Cc1ccc(C)n1NC(=O)c1ccc(Cl)cc1Cl`, the figure is 0.557.
`O=C(Cn1cnc2ccccc2c1=O)Nc1ccc2c(c1)CCC2` gave a z-score of 0.108.
Then `Nc1ccc(N2CCN(c3ccc(Cl)c(Cl)c3)CC2)cc1`, with 0.112.
`CCOC(=O)c1ccc(NC(=S)NCCc2ccccc2)cc1` registered a z-score of 0.0663.
Then `CCc1ccc(C(=O)NCc2ccc(Cl)cc2)cc1`, with -0.109; and `Cc1ccc(C(O)c2nc3ccccc3n2C(C)C)cc1` (stereo not drawn), with -0.553.
As for `COC(=O)Cc1c(C)c2ccc(OCc3nn[nH]n3)cc2oc1=O`, the figure is 0.162.
As to `CN1CCN(CC(=O)Nc2nnc(-c3cccs3)s2)CC1`, the z-score was -0.226.
As for `CC1(C)CC(=O)C2=C(C1)N(Cc1ccccc1)C(=O)C2(NC(=O)C(C)(C)C)C(F)(F)F` (stereo not drawn), the figure is -0.00164; as for `Cc1c(C(=O)O)c(=S)sn1CCOc1ccccc1`, active: -3.63.
As for `NC(=O)c1cc(N2C(=O)C3CC=CCC3C2=O)ccc1N1CCCCC1` (stereo not drawn), the figure is -0.704.
Then `O=C(c1ccccc1)N1CC(COc2ccccc2)OC(c2ccco2)O1` (stereo not drawn), with -0.151; and `COc1ccc(C(NC(=O)CNC(C)=O)C(=O)Nc2ccc3c(c2)OCCO3)cc1` (stereo not drawn), with -0.0485.
For the compound `O=C(c1ccccc1)N1CCN(Cc2c[nH]c3ccccc23)CC1`, the z-score was 0.433.
As for `COc1cc(OC)cc(-c2nc3ccccc3c(=O)n2OC(=O)c2ccc(Br)cc2)c1`, the figure is -0.716.
As for `COc1ccc(OCC(=O)N2CCN(c3cccc(Cl)c3)CC2)cc1`, the figure is -0.493.
As for `COc1ccc(C(=O)Nc2cc([N+](=O)[O-])ccc2N2CCN(C)CC2)cc1`, the figure is -0.157; as for `O=C(COC(=O)c1ccc2ccccc2n1)Nc1ncc(C(F)(F)F)cc1Cl`, -0.0218.
Compound `O=C(CCN1CCOCC1)Nc1c(-c2ccccc2)c2cc(Br)ccc2[nH]c1=O` yielded a z-score of 0.572.
Regarding `CCc1cccc(NC(=O)Cc2ccc(OC)c(OC)c2)c1`, the z-score is -0.327.
As for `CC(=O)c1cccc(NC(=O)N2CCCC2C(=O)Nc2ccccc2C)c1` (stereo not drawn), the figure is 0.393; as for `Cc1ccc(C(=O)N/N=C(/CC(=O)c2cccs2)C(F)(F)F)cc1`, active: 7.05.
As for `C=C(C)Cn1c(N2CCN(CC)CC2)nc2c1c(=O)[nH]c(=O)n2C`, the figure is -0.119; as for `C/C(Cn1cnc([N+](=O)[O-])n1)=N\NC(=O)c1ccc(F)cc1`, -0.212; as for `Cc1ccc(NS(=O)(=O)c2ccc(Cl)s2)cc1S(=O)(=O)N(C)C`, 0.393.
As for `CCOc1cc(C2C(C(=O)OCC(C)C)=C(C)N=C3SCCC(=O)N32)ccc1OC(C)=O` (stereo not drawn), the figure is -0.787; as for `O=c1cc(-c2ccco2)oc2ccc(Cl)cc12`, -0.578; as for `CC(Sc1ccc(Cl)cc1)C(=O)Nc1ccccc1C(=O)N1CCOCC1` (stereo not drawn), -0.128.
`CC1(C)CC2CC(C)(CN2S(=O)(=O)c2cccc(N)c2)C1` (stereo not drawn) had a z-score of 0.33.
Regarding `O=C(CN1C(=O)COc2ccc(S(=O)(=O)N3CCCC3)cc21)NC1CCCCCCC1`, the z-score was -0.315.
Then `O=C(CCCCl)Oc1ccc2cc(-c3ccc4ccccc4n3)c(=O)oc2c1`, with -0.189; and `CCCSC1=N/C(=C\C=C\c2ccco2)C(=O)S1`, with -0.777; and `Oc1ccccc1-c1cc(-c2ccccc2)no1`, with 0.0134.
As for `O=Nc1c(O)n(Cc2c(Cl)cccc2Cl)c2ccccc12`, the figure is -0.331; as for `Cc1cc(COc2ccccc2O)on1`, -0.116.
Then `CC(=O)/C(=N/Nc1cccc(C)c1)N1CCOCC1`, with -0.158; and `O=[N+]([O-])c1ccc(N2CCN(S(=O)(=O)c3ccc(Cl)cc3)CC2)cc1NCC1CCCO1` (stereo not drawn), with -0.211.
Turning to `Cc1cccc(N2CCN(C(=O)C(C)n3nc(C)n4c(cc5occc54)c3=O)CC2)c1C` (stereo not drawn), the z-score turned out to be 0.0787.
Then `COCC(=O)NCCc1ccc(S(N)(=O)=O)cc1`, with 0.0312.
As for `CCC(=O)c1cc2c(C)cc(=O)oc2c(C)c1OC(=O)C(C)C`, the figure is 0.0468; as for `CCOC(=O)Cn1c(-c2ccccn2)nc2ccccc21`, 0.901.
In turn, `Cc1cc(C)n2[nH]c(=O)c(N=Nc3cccc(C(F)(F)F)c3)c2n1` came in with a z-score of 0.14.
Then `COc1cccc(NC2CC(=O)N(CCc3ccccc3)C2=O)c1` (stereo not drawn), with 0.0463; and `CCc1c(C)nc2ncnn2c1N1CCC(C(=O)NCc2cccc(OC)c2)CC1`, with 0.0344.
As for `O=C(Cn1nnc(-c2ccccc2NC(=O)c2cccs2)n1)Nc1ccccc1`, the figure is -0.11.
Then `CCOC(=O)C1(C)NC(c2ccc(OC)cc2OC)C2C(=O)N(c3cccc(OC)c3)C(=O)C21` (stereo not drawn), with -0.142.
The compound `O=C(Nc1ncn[nH]1)c1ccc(Cl)c(S(=O)(=O)Nc2ccc(Cl)cc2)c1` came in with a z-score of 0.47.
In the case of `Cc1ccc(S(=O)(=O)Cn2nnnc2C(c2ccccc2)N2CCN(c3ncccn3)CC2)cc1` (stereo not drawn), the z-score amounted to 0.533.
`CC(C)(C)c1cc(NC(=O)C2CCCO2)no1` (stereo not drawn) yielded a z-score of -0.542.
As for `Cc1ccc(-c2nnc3n2N=C(c2ccc(Br)cc2)CS3)cc1`, the figure is 0.401.
As for `CC(=O)c1c(C)nc(-c2ccc(Cl)cc2)nc1NC(=O)C(C)C`, the figure is -0.967; as for `O=C(Nc1nccs1)c1ccc(Cl)c(S(=O)(=O)N2CCOCC2)c1`, 0.0713.
As for `CCS(=O)(=O)N1CCCC(C(=O)NCc2ccc3c(c2)OCO3)C1` (stereo not drawn), the figure is 0.172; as for `Cc1cc(C)n2nc(CCc3ccccc3)nc2n1`, -0.0448; as for `COC(=O)CCN(C(=O)c1cccc(OC(C)=O)c1)c1ccccn1`, 0.19.
Regarding `COc1ccc(N=C2S/C(=C\c3cc(C)n(C)c3C)C(=O)N2CC(C)C)cc1`, the z-score was -0.473.
Then `CC1=NN(c2ccccc2)C(=O)/C1=C/c1cccs1`, with -0.364; and `CCn1c(=O)cc(OCC(=O)Nc2ccccc2C#N)c2ccccc21`, with 0.787; and `CCN1CCN(c2nc3sc4c(c3c(=O)n2-c2ccc(OC)cc2)CCCCC4)CC1`, with -0.199.
As for `Cc1ccccc1NS(=O)(=O)c1cc(S(C)(=O)=O)ccc1Cl`, the figure is -0.0663; as for `COc1ccc(C2CC(C(F)(F)F)n3nc(C(=O)Nc4c(C)n(C)n(-c5ccccc5)c4=O)c(Cl)c3N2)cc1` (stereo not drawn), -0.209.
As for `O=C(NCc1ccc(C(F)(F)F)cc1)C12CN(Cc3ccccc3)CC1C(c1cccc([N+](=O)[O-])c1)=NO2` (stereo not drawn), the figure is -0.00487; as for `COC(=O)Cc1cc(=O)n(-c2nc3ccccc3s2)[nH]1`, -0.0486; as for `CC(C)c1nc(SCC(=O)c2ccccc2)c2c(=O)n(C)c(=O)n(C)c2n1`, -0.239.
For `O=C(c1cccc(C(=O)N2CCN(c3ncccn3)CC2)c1)N1CCN(c2ncccn2)CC1`, the z-score was 0.184.
